Results: the supplement of paper PMC8728848
Some of the results follow.

Columns and labels:
Assay in all cases: glycan array binding signal (z-score within array); higher = stronger binding
Conditions in all cases: glycan notation: IUPAC condensed, linker removed
[1] = target: Neu5Ac(a2-6)Gal(b1-4)GlcNAc(b1-2)Man(a1-6)[Man(a1-3)]Man(b1-4)GlcNAc(b1-4)GlcNAc
Procedure, shortened: (§1)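 Glycan array binding is given as a within-array Z-score, which can be read as non-binding when negative. The arrays, 3228 of them, came from the Consortium for Functional Glycomics database and were retained only where the protein sequence was available. Z-scores were averaged across arrays of the same protein sequence at different concentrations or buffers and across linkers.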

[2] = target: Neu5Ac(a2-6)Gal(b1-4)GlcNAc(b1-3)Gal(b1-3)GlcNAc
Procedure, shortened: as §1

[3] = target: Neu5Ac(a2-6)Gal(b1-4)GlcNAc(b1-3)Gal(b1-4)GlcNAc
Procedure, shortened: as §1

[4] = target: Neu5Ac(a2-6)Gal(b1-4)GlcNAc(b1-3)Gal(b1-4)GlcNAc(b1-3)Gal(b1-4)GlcNAc
Procedure, shortened: as §1

[5] = target: Neu5Ac(a2-6)Gal(b1-4)GlcNAc(b1-3)Gal(b1-4)[Fuc(a1-3)]GlcNAc(b1-3)Gal(b1-4)[Fuc(a1-3)]GlcNAc
Procedure, shortened: as §1

[6] = target: Neu5Ac(a2-6)Gal(b1-4)GlcNAc(b1-3)GalNAc
Procedure, shortened: as §1

[7] = target: Neu5Ac(a2-6)Gal(b1-4)GlcNAc(b1-3)[Neu5Ac(a2-6)Gal(b1-4)GlcNAc(b1-6)]GalNAc
Procedure, shortened: as §1

[8] = target: Neu5Ac(a2-6)Gal(b1-4)GlcNAc(b1-6)GalNAc
Procedure, shortened: as §1

[9] = target: Neu5Ac(a2-6)Gal(b1-4)GlcNAc(b1-6)[Gal(b1-3)GlcNAc(b1-3)]Gal(b1-4)Glc
Procedure, shortened: as §1

[10] = target: Neu5Ac(a2-6)Gal(b1-4)GlcNAc6S
Procedure, shortened: as §1

Neu5Ac(a2-6)GalNAc = target: Neu5Ac(a2-6)GalNAc
Procedure, shortened: as §1

[11] = target: Neu5Ac(a2-6)GalNAc(b1-4)GlcNAc
Procedure, shortened: as §1

[12] = target: Neu5Ac(a2-6)GalNAc(b1-4)GlcNAc6S
Procedure, shortened: as §1

[13] = target: Neu5Ac(a2-6)GlcNAc(b1-4)GlcNAc
Procedure, shortened: as §1

[14] = target: Neu5Ac(a2-6)GlcNAc(b1-4)GlcNAc(b1-4)GlcNAc
Procedure, shortened: as §1

Neu5Ac(a2-8)Neu5Ac = target: Neu5Ac(a2-8)Neu5Ac
Procedure, shortened: as §1

[15] = target: Neu5Ac(a2-8)Neu5Ac(a2-3)Gal(b1-3)GalNAc(b1-4)[Neu5Ac(a2-8)Neu5Ac(a2-3)]Gal(b1-4)Glc
Procedure, shortened: as §1

[16] = target: Neu5Ac(a2-8)Neu5Ac(a2-3)Gal(b1-4)Glc
Procedure, shortened: as §1

[17] = target: Neu5Ac(a2-8)Neu5Ac(a2-3)[Gal(b1-3)GalNAc(b1-4)]Gal(b1-4)Glc
Procedure, shortened: as §1

[18] = target: Neu5Ac(a2-8)Neu5Ac(a2-3)[GalNAc(b1-4)]Gal(b1-4)Glc
Procedure, shortened: as §1

[19] = target: Neu5Ac(a2-8)Neu5Ac(a2-8)Neu5Ac
Procedure, shortened: as §1

[20] = target: Neu5Ac(a2-8)Neu5Ac(a2-8)Neu5Ac(a2-3)Gal(b1-4)Glc
Procedure, shortened: as §1

[21] = target: Neu5Ac(a2-8)Neu5Ac(a2-8)Neu5Ac(a2-3)[GalNAc(b1-4)]Gal(b1-4)Glc
Procedure, shortened: as §1

[22] = target: Neu5Ac(a2-8)Neu5Ac(a2-8)Neu5Ac(a2-8)Neu5Ac(a2-3)[GalNAc(b1-4)]Gal(b1-4)Glc
Procedure, shortened: as §1

[23] = target: Neu5Ac(b2-6)Gal(b1-4)GlcNAc
Procedure, shortened: as §1

Neu5Ac(b2-6)GalNAc = target: Neu5Ac(b2-6)GalNAc
Procedure, shortened: as §1

[24] = target: Neu5Ac9Ac(a2-3)Gal(b1-3)GlcNAc
Procedure, shortened: as §1

[25] = target: Neu5Ac9Ac(a2-3)Gal(b1-4)GlcNAc
Procedure, shortened: as §1

[26] = target: Neu5Ac9Ac(a2-6)Gal(b1-4)GlcNAc
Procedure, shortened: as §1

[27] = target: Neu5Gc(a2-3)Gal(b1-3)GlcNAc
Procedure, shortened: as §1

[28] = target: Neu5Gc(a2-3)Gal(b1-3)[Fuc(a1-4)]GlcNAc
Procedure, shortened: as §1

Neu5Gc(a2-3)Gal(b1-4)Glc = target: Neu5Gc(a2-3)Gal(b1-4)Glc
Procedure, shortened: as §1

[29] = target: Neu5Gc(a2-3)Gal(b1-4)GlcNAc
Procedure, shortened: as §1

[30] = target: Neu5Gc(a2-3)Gal(b1-4)[Fuc(a1-3)]GlcNAc
Procedure, shortened: as §1

[31] = target: Neu5Gc(a2-6)Gal(b1-4)GlcNAc
Procedure, shortened: as §1

Neu5Gc(a2-6)GalNAc = target: Neu5Gc(a2-6)GalNAc
Procedure, shortened: as §1

[32] = target: Neu5Gc(b2-6)Gal(b1-4)GlcNAc
Procedure, shortened: as §1

B1: Morniga (Morus nigra) (protein)
chain: MAGTSTNTQTTGTSQTVEVGLWGGPGGNAWDDGSYTGIREINLSHGDAIGAFSVIYDLNGQPFTGPTHPGNEPSFKTVKITLDFPNEFLVSVSGYTGVLPRLATGKDVIRSLTFKTNKKTYGPYGKEEGTPFSLPIENGLIVGFKGRSGFVVDAIGVHLS
- glycan array binding signal (z-score) [1]: 4.66
- glycan array binding signal (z-score) [2]: -0.336
- glycan array binding signal (z-score) [3]: -0.341
- glycan array binding signal (z-score) [4]: -0.344
- glycan array binding signal (z-score) [5]: -0.323
- glycan array binding signal (z-score) [6]: -0.324
- glycan array binding signal (z-score) [7]: -0.336
- glycan array binding signal (z-score) [8]: -0.326
- glycan array binding signal (z-score) [9]: -0.344
- glycan array binding signal (z-score) [10]: -0.338
- glycan array binding signal (z-score) (Neu5Ac(a2-6)GalNAc): -0.339
- glycan array binding signal (z-score) [11]: -0.34
- glycan array binding signal (z-score) [12]: -0.328
- glycan array binding signal (z-score) [13]: -0.339
- glycan array binding signal (z-score) [14]: -0.331
- glycan array binding signal (z-score) (Neu5Ac(a2-8)Neu5Ac): -0.332
- glycan array binding signal (z-score) [15]: -0.328
- glycan array binding signal (z-score) [16]: -0.334
- glycan array binding signal (z-score) [17]: -0.327
- glycan array binding signal (z-score) [18]: -0.349
- glycan array binding signal (z-score) [19]: -0.343
- glycan array binding signal (z-score) [20]: -0.334
- glycan array binding signal (z-score) [21]: -0.328
- glycan array binding signal (z-score) [22]: -0.333
- glycan array binding signal (z-score) [23]: -0.325
- glycan array binding signal (z-score) (Neu5Ac(b2-6)GalNAc): -0.332
- glycan array binding signal (z-score) [24]: -0.338
- glycan array binding signal (z-score) [25]: -0.334
- glycan array binding signal (z-score) [26]: -0.326
- glycan array binding signal (z-score) [27]: -0.34
- glycan array binding signal (z-score) [28]: -0.343
- glycan array binding signal (z-score) (Neu5Gc(a2-3)Gal(b1-4)Glc): -0.314
- glycan array binding signal (z-score) [29]: -0.341
- glycan array binding signal (z-score) [30]: -0.327
- glycan array binding signal (z-score) [31]: -0.342
- glycan array binding signal (z-score) (Neu5Gc(a2-6)GalNAc): -0.338
- glycan array binding signal (z-score) [32]: -0.327
